# Measurements: the supplement of paper PMC9446081
# Out of some 39,000 compounds screened, about 220 (0.56%) showed activity. This is one part of the list.
# System: Escherichia coli K-12 BW25113
# Test: relative growth (OD600 normalised to plate interquartile mean) (fraction); higher = less growth inhibition, active = 0.2 or less
# Settings: 50 µM; LB; incubation time: overnight (16-24 h)
# 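Also: static incubation at 37 °C against the wild-type strain, values averaged over two biological replicates.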
row,SMILES,relative growth
1,C[C@@H]1CN([C@@H](C)CO)C(=O)c2cc(NC(=O)C3CCCCC3)ccc2O[C@H]1CN(C)C(=O)Nc1ccc(C(F)(F)F)cc1,inactive: 1.02
2,CCCn1c(=O)[nH]c(=O)c2[nH]cnc21,inactive: 0.968
3,C[C@H](CO)N1C[C@H](C)[C@H](CN(C)S(=O)(=O)c2cccs2)OCCCC[C@H](C)Oc2ccc(NC(=O)Nc3ccccc3)cc2C1=O,inactive: 1.02
4,C[C@@H]1CCCCO[C@H](CN(C)C(=O)Cc2ccccc2)[C@H](C)CN([C@@H](C)CO)C(=O)c2cc(NC(=O)Nc3ccc(F)cc3)ccc2O1,inactive: 0.993
5,Cc1noc(C)c1S(=O)(=O)Nc1ccc2c(c1)C(=O)N([C@H](C)CO)C[C@@H](C)[C@@H](CN(C)S(=O)(=O)c1ccc(F)cc1)O2,inactive: 1.02
6,C[C@@H]1CN([C@@H](C)CO)C(=O)c2cc(-c3cccnc3)cnc2O[C@@H]1CN(C)Cc1ccc(Oc2ccccc2)cc1,inactive: 0.86
7,C[C@@H]1CN([C@@H](C)CO)C(=O)c2cccc(NC(=O)Nc3cccc4ccccc34)c2O[C@H]1CN(C)C(=O)Nc1ccccc1,inactive: 0.792
8,O=C(Nc1ccc2c(c1)[C@H]1C[C@@H](CC(=O)N3CCc4ccccc4C3)O[C@@H](CO)[C@H]1O2)C1CCOCC1,inactive: 0.992
9,C[C@@H]1CN([C@H](C)CO)C(=O)c2cc(NC(=O)Nc3cccc4ccccc34)ccc2O[C@@H]1CN(C)Cc1ccc2c(c1)OCO2,inactive: 0.993
10,C[C@@H]1CN([C@H](C)CO)C(=O)c2cccc(NC(=O)c3ccc(-c4nccs4)cc3)c2O[C@@H]1CN(C)Cc1ccc(Cl)c(Cl)c1,inactive: 1.01
11,CC=C1C2C=C(C)CC1(N)c1ccc(=O)[nH]c1C2 (stereo not drawn),inactive: 0.949
12,Cc1noc(C)c1NC(=O)N(C)C[C@@H]1OCCCC[C@H](C)Oc2ccc(NC(=O)CCC(F)(F)F)cc2C(=O)N([C@H](C)CO)C[C@@H]1C,inactive: 0.979
13,O=C(O)c1ccc(-c2ccccc2)cc1,inactive: 0.922
14,C[C@@H]1CCCCO[C@H](CN(C)Cc2ccc(C(=O)O)cc2)[C@H](C)CN([C@H](C)CO)C(=O)c2cc(NC(=O)Cc3ccccc3)ccc2O1,inactive: 1
15,COC[C@@H]1CN(C)N=C(C2CC2)O1,inactive: 1.04
16,C[C@@H]1CCCCO[C@@H](CN(C)Cc2ccc3c(c2)OCO3)[C@H](C)CN([C@H](C)CO)C(=O)c2cc(NC(=O)Nc3ccc4c(c3)OCO4)ccc2O1,inactive: 1.01
17,COc1ccccc1-c1cccc(-c2nc(C(=O)NCc3ccncc3)cc3c2[C@@H](CCO)N([S@@](=O)C(C)(C)C)C3)c1,inactive: 1.01
18,C[C@@H]1CN([C@H](C)CO)C(=O)c2cccc(NC(=O)c3nc4ccccc4s3)c2O[C@@H]1CN(C)C(=O)Nc1cccc2ccccc12,inactive: 1
19,COc1ccc(CN(C)C[C@H]2OCCCC[C@H](C)Oc3ccc(NC(=O)NC(C)C)cc3C(=O)N([C@@H](C)CO)C[C@@H]2C)cc1,inactive: 0.928

row,SMILES,relative growth
1,CO[C@@H]1CN(C)C(=O)c2ccc(NC(=O)C3CC3)cc2OC[C@@H](C)N(C(=O)Cc2ccccn2)C[C@@H]1C,inactive: 0.981
2,C[C@@H]1CCCCO[C@H](CN(C)Cc2ccc(C(=O)O)cc2)[C@@H](C)CN([C@H](C)CO)C(=O)c2cc(NS(=O)(=O)c3cccs3)ccc2O1,inactive: 1.02
3,O=C(C[C@H]1C=C[C@@H](NC(=O)CN2CCOCC2)[C@@H](CO)O1)NCCc1ccncc1,inactive: 1
4,C[C@H](CO)N1C[C@H](C)[C@H](CN(C)Cc2ccc(C(=O)Nc3ccccc3N)cc2)OCc2cnnn2CCCC1=O,inactive: 0.997
5,Cc1noc(C)c1NC(=O)N(C)C[C@H]1OCCCC[C@@H](C)Oc2ccc(NC(=O)Nc3ccccc3)cc2C(=O)N([C@@H](C)CO)C[C@H]1C,inactive: 0.989
6,CC=Cc1ccc2n(c1=O)C[C@@H]1[C@@H](CO)[C@H](C(=O)NCCc3cn(C)cn3)[C@H]2N1C(=O)CC,inactive: 1.01
7,COc1ccc(S(=O)(=O)Nc2ccc3c(c2)C(=O)N([C@@H](C)CO)C[C@H](C)[C@@H](CN(C)C(=O)Nc2cccc4ccccc24)OCCCC[C@H](C)O3)cc1,inactive: 1.02
8,Cc1noc(C)c1NC(=O)Nc1ccc2c(c1)C(=O)N([C@@H](C)CO)C[C@H](C)[C@@H](CN(C)S(=O)(=O)c1ccc(F)cc1)OCCCC[C@H](C)O2,inactive: 1.02
9,C[C@@H]1CN([C@@H](C)CO)C(=O)CCCn2cc(nn2)CO[C@@H]1CN(C)C(=O)Nc1ccc(C(F)(F)F)cc1,inactive: 0.982
10,NCc1ccccc1-c1ccsc1,inactive: 1.03
11,COc1ccc(S(=O)(=O)N(C)C[C@H]2Oc3c(NS(C)(=O)=O)cccc3C(=O)N([C@H](C)CO)C[C@H]2C)cc1,inactive: 0.989
12,COc1ccc(S(=O)(=O)N(C)C[C@H]2Oc3ccc(NC(=O)CCN4CCOCC4)cc3CC(=O)N([C@@H](C)CO)C[C@H]2C)cc1,inactive: 1.02
13,O=C1O[C@@H](c2ccccc2)[C@@H](c2ccccc2)N2[C@@H](c3ccc(OCCO)cc3)[C@]3(C(=O)Nc4ccccc43)[C@@H](C(=O)NC[C@H](O)c3ccccc3)[C@H]12,inactive: 1.05
14,CCC1(C(=O)O)CCNCC1,inactive: 0.963
15,COc1ccc(CN(C)C[C@@H]2OCCCC[C@H](C)Oc3ccc(NS(=O)(=O)c4ccc(C)cc4)cc3C(=O)N([C@H](C)CO)C[C@H]2C)cc1,inactive: 0.966
16,Cc1ccc(S(=O)(=O)N(C)C[C@H]2OCCCC[C@H](C)Oc3ccc(NC(=O)Nc4ccc(F)cc4)cc3C(=O)N([C@@H](C)CO)C[C@@H]2C)cc1,inactive: 1.04
17,COc1ccc(NC(=O)N(C)C[C@@H]2Oc3ncc(C#C[C@H](C)O)cc3C(=O)N([C@@H](C)CO)C[C@@H]2C)cc1,inactive: 1.02
18,Cc1noc(C)c1NC(=O)Nc1cccc2c1O[C@@H](CN(C)S(C)(=O)=O)[C@H](C)CN([C@@H](C)CO)C2=O,inactive: 0.971
19,C[C@@H]1CN([C@H](C)CO)C(=O)c2cc(NS(=O)(=O)c3cn(C)cn3)ccc2O[C@@H]1CN(C)Cc1ccc(C(=O)Nc2ccccc2N)cc1,inactive: 0.995
